Laboratory results from patent US20240398813A1, “PHARMACEUTICAL COMPOSITION FOR PREVENTING OR TREATING OVERACTIVE BLADDER” (GWANGJU INSTITUTE OF SCIENCE AND TECHNOLOGY, priority 2021, published 2024).
At least one compound was matched to its structure with a doubt left. Some entries share one result that the patent states for a list of compounds.

Columns and labels:
[1] = biological target: T1, hyperactive mutant BKCa channels (hSlo G803D/N806K) stably expressed in AD 293 cells (Homo sapiens, UniProt Q12791, G856D/N859K); test: Cell-based fluorescence assay (FluxOR Potassium Ion Channel Assay) of BKCa channel activation; set-up: key to Channel activity increase for 80 s (ΔRFU) at 6 μM: ratio of ΔRFU (RFU at 100 s − 20 s) to the same ΔRFU for vehicle; details: for Channel activity increase for 80 s (ΔRFU) at 6 μM: normalized by vehicle; for Initial velocity of channel activation for 4 s (vi) at 6 μM: first 4 s after channel stimulation
T1 construct: expressed in transfected cells
Procedure: AD 293 cells, which are derivatives of the commonly used HEK 293 cell line and stably express hyperactive mutant BKCa channels (hSlo G803D/N806K) to sensitively detect the effect (Lee et al., 2013), were cultured in Dulbecco' modified Eagle medium (Hyclone, Logan, Utah, […]) supplemented with 10% fetal bovine serum, and selected with 1 mg/mL Geneticin (Gibco, Amarillo, TX, USA). 20,000 cells per well were seeded on a 96-well clear-bottom black plate (Corning, New York, NY, USA) coated with poly-D-lysine (Gibco). BKCa channel activity was measured using the cell-based fluorescence assay, FluxOR Potassium Ion Channel Assay (Thermo Fisher Scientific, Waltham, MA, USA). Experimental procedures were performed according to the manufacturer's instructions. The cells were treated with test compounds dissolved in assay buffer for 15 minutes. Fluorescence was measured using a FlexStation3 multimode microplate reader (Molecular Devices, Silicon Valley, CA, USA) and SoftMax Pro (Molecular Devices). Excitation and emission wavelengths were set to 485 nm and 528 nm, respectively. Fluorescence signals were acquired every 2 seconds for 120 seconds and normalized by the relative fluorescence unit (RFU). The efficacy of a channel activator was determined by analyzing changes (ΔRFU) in the RFU for 80 seconds after channel stimulation.
Activation effects of the synthesized compounds on BKCa channels were evaluated using cell-based fluorescence assay. NS11021 was used as the positive control. The effects were determined based on the initial rate (vi) of channel activation and the apparent EC50 value obtained from fitting data of the dose-response curve. Here, Vi means change values for 4 seconds at the start of channel opening (vi={RFU(t=24 s)−RFU(t=20 s)}/4 s). […]

[2] = biological target: T2, BKCa channels (rat KCNMA, rSlo α) (Rattus norvegicus, UniProt Q62976); test: Macroscopic current recording, outside-out patch clamp, BKCa channels expressed in Xenopus oocytes; assay type: cell-based; details: 10 μM
T2 construct: expressed in transfected cells; host or cells: Xenopus laevis oocytes injected with cRNA
Text: The complete coding sequence (CDS) of each of rat KCNMA (rSlo α) (GenBank AF135265.1), KCNMB1 (rSlo 01) (GenBank FJ154955.1) and KCNMB4 (rSlo β4) (GenBank AY028605) was subcloned into pNBC2.0 or pNBC2.0. These vectors were designed to be expressed in Xenopus oocytes (Ha, T. S., Lim, H. H., Lee, G. E., Kim, Y. C., & Park, C. S. (2006). Electrophysiological characterization of benzofuroindole-induced potentiation of large-conductance Ca2+-activated K+ channels. Mol Pharmacol, 69(3), 1007-1014). The plasmid was linearized by NotI and complementary RNA (cRNA) was synthesized using the Ambion T7 mMESSAGE mMACHINE kit (Invitrogen, Carlsbad, CA, USA) according to the manufacturer's instructions. Xenopus laevis (KXRCR000001) was obtained from the Korea Xenopus Resource Center for Research (Chuncheon-si, Gangwon-do, Korea). Stage V-VI oocytes were surgically extracted from the ovarian lobes of X. laevis. A follicular cell layer was removed by culturing in Ca^2+-free oocyte Ringer's medium (86 mM NaCl, 1.5 mM KCl, 2 mM MgCl2 and 10 mM HEPES, pH 7.6) containing collagenase for 1.5 hours at room temperature. Oocytes without follicular layer were washed with ND-96 medium (96 mM NaCl, 2 mM KCl, 1.8 mM CaCl2), 1 mM MgCl2, 5 mM HEPES, […] gentamicin, pH 7.6). The prepared oocytes were stabilized overnight at 18° C. cRNA was injected into each oocyte (50 ng per oocyte) using a microdispenser (Drummond Scientific, Broomall, PA, USA). For co-expression of the β subunits, cRNA was mixed at a molar ratio of 1:12 (α:β) to induce sufficient co-assembly of the R subunits. After injection of cRNA, the oocytes were cultured in ND-96 medium for 1-3 days at 18° C. Before recording macroscopic currents, vitelline membranes of the oocytes were completely removed using fine forceps.
All macroscopic current recordings in the BKCa channels were performed using the gigaohm-seal patch-clamp method in an outside-out configuration (Ha et al., 2006). A patch pipette was made of borosilicate glass (WPI, Sarasota, FL, USA) and fire-polished by a resistance of 3-5 MQ. Ion currents were amplified using an Axopatch 200B amplifier (Molecular Devices). The currents were low-pass filtered at 1 kHz using a four-pole Bessel filter and digitized at a rate of 10 or 20 points/ms using a Digidata 1200A interface (Molecular Devices). The BKCa channels were activated by repeated voltage clamps at +100 mV or by voltage clamp pulses ranging from −80 to +200 mV with an increment of 10 mV. The resting potential was maintained at −100 mV. The recording solution contained 116 mM KOH, 4 mM KCl, 10 mM HEPES, and 5 mM EGTA (pH 7.2). The intracellular solution contained 3 μM Ca^2+ in the recording solution (pH 7.0). MaxChelator program was used to calculate the total amount of Ca^2+ to be added to the intracellular solution for obtaining free Ca^2+ at a concentration of 3 μM.
The commercial software Clampex 8.0 (Molecular Device) and Origin 9.1 (OriginLab Corp., Northampton, MA, USA) were used for data analysis and fitting of the macroscopic currents. A conductance-voltage (G-V) curve obtained from the external current was fitted by the Boltzmann equation [y=(Gmax−Gmin)/{1+exp[(V1/2−x)/k]}+Gmin]. Wherein k is RT/zF, and wherein R is a gas constant, T is a temperature, F is the Faraday's constant, and z is a gating charge. Gmax is the maximum conductivity and V1/2 is a voltage for half maximum conductivity. The concentration-dependent V1/2 shift was fitted by the Hill equation [y=AVi/2,max x^n/(EC50^n+x^n)]. […]

T2 sequence (Q62976 whole entry): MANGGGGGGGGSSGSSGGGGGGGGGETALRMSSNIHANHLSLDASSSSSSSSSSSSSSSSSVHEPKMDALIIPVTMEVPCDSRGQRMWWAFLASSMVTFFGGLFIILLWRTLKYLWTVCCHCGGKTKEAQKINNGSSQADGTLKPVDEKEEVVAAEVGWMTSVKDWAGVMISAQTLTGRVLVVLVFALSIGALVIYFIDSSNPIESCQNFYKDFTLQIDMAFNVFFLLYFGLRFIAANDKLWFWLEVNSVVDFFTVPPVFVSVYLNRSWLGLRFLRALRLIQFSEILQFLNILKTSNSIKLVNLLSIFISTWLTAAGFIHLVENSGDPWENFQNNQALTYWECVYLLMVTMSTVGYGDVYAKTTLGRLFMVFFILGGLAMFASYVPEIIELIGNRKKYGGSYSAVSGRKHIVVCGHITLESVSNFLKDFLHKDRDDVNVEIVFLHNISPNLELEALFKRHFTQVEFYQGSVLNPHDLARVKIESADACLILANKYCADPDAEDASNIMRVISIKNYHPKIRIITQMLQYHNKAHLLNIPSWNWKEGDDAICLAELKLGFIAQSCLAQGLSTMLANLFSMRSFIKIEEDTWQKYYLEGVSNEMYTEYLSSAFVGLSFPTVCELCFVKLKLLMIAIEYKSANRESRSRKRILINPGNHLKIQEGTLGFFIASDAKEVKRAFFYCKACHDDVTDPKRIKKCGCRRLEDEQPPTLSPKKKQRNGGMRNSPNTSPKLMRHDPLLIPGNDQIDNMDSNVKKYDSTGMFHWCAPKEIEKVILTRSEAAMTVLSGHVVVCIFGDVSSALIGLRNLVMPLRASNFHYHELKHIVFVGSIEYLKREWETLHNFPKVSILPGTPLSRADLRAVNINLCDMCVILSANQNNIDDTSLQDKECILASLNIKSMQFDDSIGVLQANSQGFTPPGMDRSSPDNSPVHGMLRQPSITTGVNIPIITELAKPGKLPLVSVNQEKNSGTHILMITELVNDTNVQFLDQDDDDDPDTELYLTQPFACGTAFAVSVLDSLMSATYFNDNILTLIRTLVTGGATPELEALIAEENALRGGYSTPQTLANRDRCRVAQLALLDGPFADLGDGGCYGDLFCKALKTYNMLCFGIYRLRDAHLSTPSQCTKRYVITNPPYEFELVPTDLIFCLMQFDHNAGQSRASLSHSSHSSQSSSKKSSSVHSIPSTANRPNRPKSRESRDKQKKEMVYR
T1 sequence (Q12791 whole entry G856D/N859K): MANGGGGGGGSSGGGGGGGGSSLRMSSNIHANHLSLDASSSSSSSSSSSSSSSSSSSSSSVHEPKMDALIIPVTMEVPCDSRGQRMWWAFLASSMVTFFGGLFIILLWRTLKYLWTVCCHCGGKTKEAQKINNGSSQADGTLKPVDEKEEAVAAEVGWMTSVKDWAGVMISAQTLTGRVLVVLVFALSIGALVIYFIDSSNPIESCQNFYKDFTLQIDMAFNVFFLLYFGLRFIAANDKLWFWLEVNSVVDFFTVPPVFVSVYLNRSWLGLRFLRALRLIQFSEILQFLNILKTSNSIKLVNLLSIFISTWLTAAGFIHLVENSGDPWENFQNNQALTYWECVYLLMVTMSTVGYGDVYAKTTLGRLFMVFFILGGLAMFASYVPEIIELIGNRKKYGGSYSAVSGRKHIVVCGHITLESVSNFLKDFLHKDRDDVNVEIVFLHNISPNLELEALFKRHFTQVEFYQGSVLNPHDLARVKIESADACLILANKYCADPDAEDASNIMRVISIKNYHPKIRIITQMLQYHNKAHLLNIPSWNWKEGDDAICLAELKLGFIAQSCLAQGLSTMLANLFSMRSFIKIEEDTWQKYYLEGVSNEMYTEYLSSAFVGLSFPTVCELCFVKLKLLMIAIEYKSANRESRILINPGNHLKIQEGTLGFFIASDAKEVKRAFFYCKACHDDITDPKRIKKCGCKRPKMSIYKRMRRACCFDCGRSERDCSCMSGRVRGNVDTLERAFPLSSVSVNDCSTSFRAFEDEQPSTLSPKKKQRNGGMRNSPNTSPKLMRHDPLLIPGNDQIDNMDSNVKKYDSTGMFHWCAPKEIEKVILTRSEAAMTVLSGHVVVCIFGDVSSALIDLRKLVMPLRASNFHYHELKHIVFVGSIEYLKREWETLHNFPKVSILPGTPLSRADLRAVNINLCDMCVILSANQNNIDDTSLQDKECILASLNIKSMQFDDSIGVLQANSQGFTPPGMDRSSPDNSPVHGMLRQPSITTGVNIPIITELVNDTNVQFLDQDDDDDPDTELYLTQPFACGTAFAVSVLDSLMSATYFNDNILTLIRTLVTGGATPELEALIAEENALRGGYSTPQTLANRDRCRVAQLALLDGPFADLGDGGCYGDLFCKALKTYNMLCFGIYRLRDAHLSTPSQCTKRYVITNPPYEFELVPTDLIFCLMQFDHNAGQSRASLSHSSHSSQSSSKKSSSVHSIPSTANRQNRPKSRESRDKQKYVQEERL

## O=C(Nc1ccccc1)c1sc(=S)n2c1[nH]c(=O)c1ccc(Cl)cc12 [Compound 103, 8-chloro-5-oxo-N-phenyl-1-thioxo-4,5-dihydro-1H-thiazolo[3,4-a]quinazoline-3-carboxamide]
[1]
  Channel activity increase for 80 s (ΔRFU) at 6 μM: 1.03-1.56

## Cc1ccc2c(c1)c(=O)[nH]c1c(C(=O)Nc3ccccc3)sc(=S)n12 [Compound 105, 7-methyl-5-oxo-N-phenyl-1-thioxo-4,5-dihydro-1H-thiazolo[3,4-a]quinazoline-3-carboxamide]
[1]
  Initial velocity of channel activation for 4 s (vi) at 6 μM: 0.23 to 0.84 s⁻¹
  Channel activity increase for 80 s (ΔRFU) at 6 μM: 1.03-1.56

## O=C(Nc1ccccc1)c1sc(=S)n2c1[nH]c(=O)c1cc(Cl)ccc12 [Compound 106, 7-chloro-5-oxo-N-phenyl-1-thioxo-4,5-dihydro-1H-thiazolo[3,4-a]quinazoline-3-carboxamide]
[1]
  Initial velocity of channel activation for 4 s (vi) at 6 μM: 0.23 to 0.84 s⁻¹
  Channel activity increase for 80 s (ΔRFU) at 6 μM: 1.03-1.56

## O=C(Nc1ccccc1)c1sc(=S)n2c1[nH]c(=O)c1ccc(Br)cc12 [Compound 104, 8-bromo-5-oxo-N-phenyl-1-thioxo-4,5-dihydro-1H-thiazolo[3,4-a]quinazoline-3-carboxamide]
[1]
  Channel activity increase for 80 s (ΔRFU) at 6 μM: 1.03-1.56

## Cc1ccc2c(=O)[nH]c3c(C(=O)Nc4ccccc4)sc(=S)n3c2c1 [Compound 102, 8-methyl-5-oxo-N-phenyl-1-thioxo-4,5-dihydro-1H-thiazolo[3,4-a]quinazoline-3-carboxamide]
[1]
  Initial velocity of channel activation for 4 s (vi) at 6 μM: 0.23 to 0.84 s⁻¹
  Channel activity increase for 80 s (ΔRFU) at 6 μM: 1.03-1.56

## O=C(Nc1cccc(C(F)(F)F)c1)c1sc(=S)n2c1[nH]c(=O)c1cc(Br)ccc12 [Compound 208, 7-bromo-5-oxo-1-thioxo-N-(3-(trifluoromethyl)phenyl)-4,5-dihydro-1H-thiazolo[3,4-a]quinazoline-3-carboxamide]
[2]
  effect on channel activation time constant (τ activation): significantly affected
  effect on channel deactivation time constant (τ deactivation), words: significantly affected
  increase of maximum conductance (Gmax) compared to the vehicle treatment group: 1.5±0.11 times
  shift of voltage at half activation (V1/2) to the left: 42.6±7.35 mV
[2]; ΔG=−zFV1/2
  change of channel activation Gibbs-free energy (ΔG): -1.92 kcal/mol
[1]
  Initial velocity of channel activation for 4 s (vi) at 6 μM: 16.77 s⁻¹
  Channel activity increase for 80 s (ΔRFU) at 6 μM: 3.35
